Data taken from PubChem BioAssay AID540317 (National Center for Advancing Translational Sciences (NCATS), 2011).
Among all 390,000 compounds or so, about 2,200 (0.56%) were called active. The inconclusive results got no clear call from the source; some entries with a clear call stand among them for comparison. Calls come from the whole dose curve; as a rule, active = well fitted inhibition curve with a large enough effect; inconclusive = small, poorly fitted or top-dose-only effect; inactive = no such curve, though single readings can be large or run the other way. Potencies beside an inconclusive call are fits to weak or partial responses and may not hold up.

molecular target: Chromobox protein homolog 1 (Homo sapiens) (UniProt P83916); experiment: HTS for Inhibitors of HP1-beta Chromodomain Interactions with Methylated Histone Tails; details: AlphaScreen HP1-beta / biotin-H3K9me3 peptide binding; series mostly up to 114 µM; note: nearly all actives have a fitted effect of over 70% in size
Method in brief: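 HP1-beta protein (50 nM final) preincubated 30 min at room temperature with biotinylated H3(1-18)K9me3 peptide (50 nM) in PBS pH 7.4, 0.01% Tween-20, then compound added for 30 min. AlphaScreen streptavidin donor/nickel chelate acceptor beads (10 ug/mL final), 30 min dark, luminescence read.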
Potency is the fitted concentration of half-maximal effect; tags give direction and shape of the fitted curve.

UniProt P83916, sequence (P83916 whole entry, looked up): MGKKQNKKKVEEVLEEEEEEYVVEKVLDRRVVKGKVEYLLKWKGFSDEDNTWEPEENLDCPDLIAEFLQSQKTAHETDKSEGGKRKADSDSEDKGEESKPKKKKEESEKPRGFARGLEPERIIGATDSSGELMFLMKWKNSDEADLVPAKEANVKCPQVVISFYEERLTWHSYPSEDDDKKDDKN

SMILES	Potency
COc1ccc(N2C(=O)CSC23C(=O)N(CC(=O)NCc2ccccc2)c2ccccc23)cc1 (stereo unspecified)	inactive
COc1ccc(C(=O)NCc2nnc(SCC(=O)N3CCCCC3)o2)cc1OC	inactive
Clc1ccc(C2Nc3cccc4cccc(c34)N2)c(Cl)c1	inconclusive: 25.1 µM [inhibitor, full curve]
CCN(CC)C(=O)CSc1nc2c(sc(=S)n2-c2ccccc2)c(=O)n1-c1ccc(OC)cc1OC	inconclusive: 11.2 µM [inhibitor, full curve, poor fit]
COc1ccc(OC)c(NC(=O)c2c(NCc3ccc(C)o3)sc3c2CCCCC3)c1	inconclusive: 17.8 µM [inhibitor, full curve]
Cc1nn(CCCC(=O)Nc2sc3c(c2C#N)CCC3)c(C)c1[N+](=O)[O-]	inconclusive: 25.1 µM [inhibitor, partial curve, poor fit]
COc1cccc(Nc2nc(N)c([N+](=O)[O-])c(NCc3ccco3)n2)c1	inconclusive: 15.8 µM [inhibitor, partial curve, poor fit]
CC(C)(C)c1ccc(OCC(O)CN2CCN(C(=O)c3ccccc3)CC2)cc1 (stereo unspecified)	inconclusive: 14.1 µM [inhibitor, partial curve, poor fit]
CN(C)S(=O)(=O)c1ccc(NC(=O)CSc2nnc(-c3ccco3)o2)cc1	inactive
COc1ccc(C#Cc2cnc(Cl)c3cncnc23)cc1OC	inactive
CCC(C)NC(C(=O)Nc1ccc(Cl)c([N+](=O)[O-])c1)c1ccccc1 (stereo unspecified)	inconclusive: 50.1 µM [inhibitor, partial curve, poor fit]
O=C(NCCc1ccccc1)C(=O)NCC(c1cccnc1)N1CCN(c2ccccc2)CC1 (stereo unspecified)	inactive
Cc1ccc(S(=O)(=O)/N=C2/NC(=O)/C(=C\c3cc(Br)cc(Br)c3O)S2)cc1	inconclusive: 17.8 µM [inhibitor, partial curve, poor fit]
Cc1cccc2sc(NNC(=O)C3COc4ccccc4O3)nc12 (stereo unspecified)	inactive
C(/C=C/c1ccco1)=N/N1CCN(c2ccccc2)CC1	inconclusive: 35.5 µM [inhibitor, partial curve]
Cc1ccc(S(=O)(=O)N2CCCCC2C(=O)Nc2ccc(N(C)C)cc2)cc1 (stereo unspecified)	inconclusive: 50.1 µM [inhibitor, partial curve, poor fit]
CCn1cc(C(=O)OCC(=O)Nc2cccc(Cl)c2C)c(=O)c2ccc(C)nc21	inactive
Nc1nc2cc(S(=O)(=O)N3CCOCC3)ccc2o1	inconclusive: 25.1 µM [inhibitor, partial curve]
CCCCCNC(=O)c1ccc2c(=O)[nH]c3c(C(=O)NCC4CCCO4)sc(=S)n3c2c1 (stereo unspecified)	inconclusive: 79.4 µM [inhibitor, partial curve]
O=C(CSc1nc(=O)n(Cc2ccco2)c2c1CCC2)NCc1ccccc1Cl	inactive
COc1cc(CN(CCc2c(C)[nH]c3ccc(C)cc23)C(=S)NC(C)(C)C)cc(OC)c1OC	inconclusive: 39.8 µM [inhibitor, partial curve]

SMILES	Potency
COC(=O)c1ccc(/C=N/N2CCN(Cc3ccccc3)CC2)cc1	inactive
CCc1ccc(/C=C2/SC(=S)N(CC(=O)Nc3nc4ccccc4s3)C2=O)cc1	inconclusive: 17.8 µM [inhibitor, partial curve, poor fit]
Cc1c(C)n(CC(O)CN2CCOCC2)c2ccccc12 (stereo unspecified)	active: 70.8 µM
N#C/C(=C/c1ccc(Br)s1)C(=O)NCCc1c[nH]c2ccccc12	inconclusive: 11.2 µM [inhibitor, partial curve, poor fit]
CCOc1cccc(OCCNC2CCCC2)c1	inconclusive: 56.2 µM [inhibitor, partial curve, poor fit]
CC1CC(C)CN(CC(C)(C)NS(=O)(=O)c2ccccc2)C1 (stereo unspecified)	inconclusive: 50.1 µM [inhibitor, partial curve]
COc1ccc(N(CC(=O)N/N=C/c2ccco2)S(=O)(=O)c2ccccc2)cc1	inconclusive: 39.8 µM [inhibitor, partial curve]
Cc1cc(Cl)cc(Br)c1OCCCCn1cncn1	inconclusive: 44.7 µM [inhibitor, partial curve]
O=C(C[n+]1ccccc1)N/N=C/c1cc(Br)cc(Br)c1O	inactive
Cc1ccc2c(c1)[C@H]1[C@H](CO2)[C@H](c2ccccc2)[C@]2(C)C(=O)Nc3cc(F)ccc3C(=O)N12	inactive
CCOC(=O)/C(=C/c1ccc(OC(F)F)cc1)C1=Nn2c(nnc2-c2ccc(Cl)cc2)SC1	inconclusive: 31.6 µM [inhibitor, partial curve]
CC/C(=C(\c1ccccc1)c1ccc(OCCN(C)C)cc1)c1ccccc1	inconclusive: 39.8 µM [inhibitor, partial curve]
Cc1cc(C(=O)CCl)c(C)n1Cc1ccco1	inconclusive: 79.4 µM [inhibitor, single point]
CCCn1c2ccccc2c2cnn(CC(=O)NCC3CCN(Cc4ccccc4C)CC3)c(=O)c21	inactive
CC(/C=C/c1ccccc1)=N/NC(=O)CCC(=O)Nc1ccccc1C	inconclusive: 31.6 µM [inhibitor, single point]
COc1ccc(-c2[nH]c(-c3ccc(C)cc3)nc2SCC(=O)Nc2nccs2)cc1	inconclusive: 31.6 µM [inhibitor, single point]
O=C1Nc2cc(C(=O)N3CCN(c4ccc(F)cc4)CC3)ccc2NC1CSCc1cccc(F)c1 (stereo unspecified)	inconclusive: 25.1 µM [inhibitor, single point]
COc1ccc(N2CCN(C(c3ccccc3OC)c3nnnn3C3CCCC3)CC2)cc1 (stereo unspecified)	inconclusive: 15.8 µM [inhibitor, full curve]
O=C(O)CCC(=O)N1CCc2cc(S(=O)(=O)NCc3ccc(F)cc3)ccc21	inactive
CC(=O)N1CCC2(CC1)C/C(=N\NC(=S)Nc1ccccc1C)c1cc(O)ccc1O2	inconclusive: 17.8 µM [inhibitor, partial curve]
Cc1cccc(-n2c(C)cc(/C=N/NC(N)=S)c2C)c1	inconclusive: 56.2 µM [inhibitor, single point]

SMILES	Potency
CSc1nc(NCc2ccccc2)c2c3c(sc2n1)CN(C)CC3	inactive
O=C1Nc2ccccc2C(=O)C1(Cl)Cc1ccccc1 (stereo unspecified)	inconclusive: 22.4 µM [inhibitor, full curve, poor fit]
O=c1c2ccccc2nc(-c2ccccc2)n1Cc1ccccc1	inactive
O=C(c1ccc2c(=O)n(Cc3ccc(Cl)cc3)c(=S)[nH]c2c1)N1CCCC1	inactive
CC(C)OC(=O)CCCNc1ccc([N+](=O)[O-])cc1[N+](=O)[O-]	inconclusive: 79.4 µM [inhibitor, partial curve]
CCOC(=O)c1c(-c2ccccc2)oc2ccc(NS(=O)(=O)c3ccc(C)cc3)cc12	inactive
O=C(N/N=C/c1ccccn1)c1cc(-c2cccc3ccccc23)n[nH]1	inconclusive: 79.4 µM [inhibitor, single point]
COc1ccc(S(=O)(=O)N2CCC(NC(=O)c3cccc(F)c3)CC2)cc1	inactive
CCOC(=O)c1c(C)[nH]c(=S)c(C#N)c1-c1ccccc1	inconclusive: 25.1 µM [inhibitor, single point]
COc1ccc(-c2cnc(SCC(=O)Nc3nc(C(C)(C)C)cs3)n2Cc2ccco2)cc1	inconclusive: 25.1 µM [inhibitor, single point]
Cc1nc(NC(=O)c2ccc(Cl)cc2)nc2cc3c(cc12)OCO3	inactive
CCOc1ccc(NC(=O)C2CC3CCC2C3)cc1 (stereo unspecified)	inconclusive: 89.1 µM [inhibitor, single point]
CC(C)SCC(=O)Nc1ncc2c(n1)-c1ccccc1CC2	inconclusive: 70.8 µM [inhibitor, partial curve]
CSc1ccc(/C=N/NC(=O)CNc2ccc3ccccc3c2)cc1	inconclusive: 35.5 µM [inhibitor, partial curve, poor fit]
Nc1ccccc1SCc1c(Cl)cccc1Cl	inactive
COc1cccc(NC(=O)c2cc3ccccc3o/c2=N\O)c1	inconclusive: 20 µM [inhibitor, full curve]
Cc1cc([N+](=O)[O-])ccc1N=Nc1c(N)[nH]n(-c2ccccc2)c1=O	inconclusive: 79.4 µM [inhibitor, single point]
CCOc1ccccc1Oc1c(C)oc2c(CN3CCN(CCO)CC3)c(O)ccc2c1=O	inactive
CN(CC(=O)Nc1ccc(Cl)c(C(F)(F)F)c1)C(=O)c1ccc(N2CCOCC2)c([N+](=O)[O-])c1	inconclusive: 50.1 µM [inhibitor, partial curve, poor fit]
